# Measured values published in the supplement of paper PMC11417369.
# ± gives the standard deviation of the averaged measurements. The list shows a part of the results.
# Tested on: PfAP2-I AP2 domain 3 (GST-tagged)
# Assay: gcPBM binding intensity (ln(normalized median fluorescence intensity)); higher = stronger DNA binding
# Outline: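 An Agilent 4 × 180k array of primer-extended double-stranded 36-bp intergenic genomic probes, with negative controls, was incubated for 1 h with GST-tagged P. falciparum DNA-binding domains expressed in E. coli. Alexa488 anti-GST antibody detected bound protein, scanned at 488 nm. Binding intensity is the highest Masliner-normalised natural-log median intensity across replicate spots of either probe orientation.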
row,Sequence,gcPBM binding intensity (ln)
1,CCATATAATATGAACAGTACACACAAAATAAATTCG [XGTACX_site7590],7.91 ± 0.49
2,AAATATTATAGCACCACACACTTATTTTATATATAT [CACACA_site5281],10.8 ± 0.86
3,ATATATATATATATTTGTACAGATTTATATTATAAT [XGTACX_site7612],9.26 ± 0.57
4,GCGGCGGTATCATGCACACGTATATATTGTAACAGT [CACACA_site4958],8.58 ± 0.72
5,TCATTGAAAAAAATGTGTACTCATCAAGTATATATT [XGTACX_site6430],7.67 ± 0.72
6,TTTACAGATACATTCACACATAAATTCATGTATAAT [CACACA_site5387],7.68 ± 0.49
7,ATTGTTATGAGAACAGCACACAAGCTACATCATATA [CACACA_site8192],8.01 ± 0.43
8,ATATATAATTTTTGTTGTACATTATAAAAATAATTA [XGTACX_site2738],7.82 ± 0.28
9,TTTTAAAAAAATAAAAAATAATAAAAAAAATAAAAA [CACACA_negctrl_site1693],7.47 ± 0.55
10,AATATGATTATTACCCGTACATATTACCTTATGGTA [XGTACX_site1714],7.66 ± 0.5
11,AATGATATTATCTCTTCACACACTCACATACAGACA [CACACA_site8335],7.88 ± 0.61
12,TATATAAGGATATATACACACATATAGGTATTTATA [CACACA_site7092],7.46 ± 0.39
13,TCAGGAATATAAAGTGCACACATAATTTGGGGGCAA [CACACA_site7974],10.5 ± 0.45
14,GTGCATATGTAGATATGTACATATTTATTTATTATT [XGTACX_site7343],9.15 ± 0.45
15,AAAAATAAATAAAGTGGTACATAAAAAAGAGAAATT [XGTACX_site874],8.36 ± 0.58
16,ATAATATATATACAAACACACAATTGTGTCCACATT [CACACA_site1747],7.96 ± 0.59
17,TGTACATATATATAATATATATATCATCATATTTTC [CACACA_negctrl_site1750],7.64 ± 0.35
18,ATTCACGTGTCTTAAAAAAAAAAAAAAGAAAAAAAG [CACACA_negctrl_site573],7.86 ± 0.48
19,ATATATATATATATATGTACATATATATACATATAT [XGTACX_site6987],9.36 ± 0.38
20,TCCTTAAAATATATCACACATTTCGTTCATTTATAA [CACACA_site4346],7.96 ± 0.61
21,TATATATATATATCCACACACATACAGATATTAAGA [CACACA_site4214],9.41 ± 0.27
22,AGTATACGAATAAAATGTACATACAAATTGTTGTAA [XGTACX_site36],7.84 ± 0.71
23,GGATTTATTATATATACACACATACATATATATATA [CACACA_site8669],9.46 ± 0.32

row,Sequence,gcPBM binding intensity (ln)
1,GTCTAAGCTTATAGGCGTACACATGAATATGGATGT [XGTACX_site2439],8.01 ± 0.62
2,ATCAAGCGCAATGTGGTGCGTAAATTTTGTATTATA,10 ± 0.37
3,ATACATAAAATTAAAACACACATTTGATTAAATACG [CACACA_site7088],7.8 ± 0.55
4,AAAGGATACAGACACACACACACATATATATATATA [CACACA_site906],9.27 ± 0.4
5,ATAAGAAAAAAGAACTGTACTAATAAAATATAAAAA [XGTACX_site3715],7.9 ± 0.44
6,ATTATATAATTGTCTTCACACACACCGATATATATA [CACACA_site8883],7.94 ± 0.68
7,TTATAAAATATATATACATGCACAAAATTATAAGTA [TGCATGCA_site294],8.52 ± 0.63
8,AATCAACATTTTTTTTGCTATTTTTTTTTTTAATTA [CACACA_negctrl_site891],7.5 ± 0.84
9,AAAAAAACATAAAATACACACAACCTTAAGAATGTA [CACACA_site3293],7.5 ± 0.59
10,AAAATTTATTATCTATATAATAATATGAAACAAAAC [GTGCAC_negctrl_site731],7.84 ± 0.59
11,TTTCATTTTTGAAGGTGTACTTAAAATTTATGTAAT [XGTACX_site6671],7.89 ± 0.28
12,CTCATTTTGTTAATGGTGCAAAAAAAAAAAAAAAAA,11.1 ± 0.73
13,ATGAAAAAAAGACATGCATGTAAATATAAATTGCTT [TGCATGCA_site504],7.83 ± 0.91
14,AGTAAGAGGCATTAAGCATGCATATTATTATAAGCA [TGCATGCA_site237],7.89 ± 0.79
15,TATTTAAAACTATACACATGCATTATATAAAGATAT [TGCATGCA_site702],7.95 ± 0.79
16,CATTATAAGAGACACACACACATATATAAATATGTA [CACACA_site6621],7.61 ± 0.38
17,AAAAAATTTATAAAAGCACACAAAATAAAAAAAAAT [CACACA_site8420],8.38 ± 0.49
18,GTATGATGTGAACATTGTACGAATGAATATATCTAA [XGTACX_site3789],7.49 ± 0.57
19,ATATAAGTATACACATGTACATATTTCTTATGTATA [XGTACX_site2854],7.92 ± 0.49
20,TATAAAGACACGTACACACACTAAGTATATCCAATA [CACACA_site6855],8.2 ± 0.071
21,AAAATGTTAAATATTAAATATGAAACAAAAAAAAAA [GTGCAC_negctrl_site211],8.01 ± 0.69
22,TAAATACATTTATATACACACCTATATATATATATA [CACACA_site5137],9.1 ± 0.26
23,TCCAAATGAAAAAATTGTACATATTTTATCATATAT [XGTACX_site6159],7.5 ± 0.56

row,Sequence,gcPBM binding intensity (ln)
1,TATAATTTAAAATACACACACATATATATAATATAT [CACACA_site2000],7.71 ± 0.47
2,ATAAGAAATTTCATACGTACATAAATAAATATATAT [XGTACX_site2932],7.95 ± 0.52
3,TAAAAAAAAGGAAATACATGCATCTACATATATATA [TGCATGCA_site500],8.04 ± 0.98
4,ATATATTTCATTTTTGTACACACAACGTTGGAGGGT [CACACA_site8999],8.25 ± 0.47
5,AAAAAAAAAATATATATATATATATAATATATATAT [TGCATGCA_negctrl_site329],9.05 ± 0.27
6,ATATAGGTAATAATAATACACACGGTGAAATATAGA [CACACA_site4040],7.94 ± 0.44
7,AAAAACTAACTGTATTGTACTCTCTTATAAATTCAC [XGTACX_site8967],7.66 ± 0.57
8,TATTGTAAAGTGTCATTATTACGTTATATTATATAT [CACACA_negctrl_site98],7.62 ± 0.48
9,GACAATATTAAAACATGTACATGCATTTTATGAATA [XGTACX_site553],7.84 ± 0.68
10,TATAATATAAAATATGCACACATTGGAATGGGAGAA [CACACA_site3746],8.76 ± 0.63
11,AAAAAAAAAAAAAAGGTGCAAATAAATTAACCTTAT,11.4 ± 0.44
12,AAAAAAAACGCACATACACACACACCCATATATATA [CACACA_site9118],8.51 ± 0.55
13,AAATGTTAAAATGACAGTACATATATAAAAAAAAAA [XGTACX_site3936],8.04 ± 0.75
14,TTTTATTTTTTCCGACGTACATCCATTATATATAAT [XGTACX_site4469],8.15 ± 0.68
15,CTAGGAAATTATATGGGTACTCATATTCATAAAAAA [XGTACX_site1846],7.71 ± 0.5
16,AAATATTTGGAGAAATGTACATATTATAAATATATT [XGTACX_site6885],7.96 ± 0.54
17,GTCGCCAAAAGGTGTACACATAATGCATTATCATAA [CACACA_site6112],8.79 ± 0.42
18,TAAAAAAAATAGCATACACACATATATACATATATA [CACACA_site658],7.42 ± 0.54
19,TGATAACCTAATAATACACACACATGAATATATATA [CACACA_site8226],7.97 ± 0.79
20,ATATTTAGGATTATCTGTACATAATATGTTTAATTA [XGTACX_site3426],7.74 ± 0.46
21,ATTAAAAAATTATTCACACAAAATAAAAAAATGAAA [CACACA_site4918],7.66 ± 0.51
22,TACACATAATATAATGCATGTGTGATGTATGTTTAA [TGCATGCA_site697],8.09 ± 0.66
23,AAAATTATTTTTATGTGTACTTATTTATTATTTATA [XGTACX_site6665],7.88 ± 0.4

row,Sequence,gcPBM binding intensity (ln)
1,TTGTATTCCTTTTACAACTACCATGAAGAGAATTTT [CACACA_negctrl_site1286],7.61 ± 0.5
2,ATAGGACATGTATCCAGTACATATTTAAAAAAAATA [XGTACX_site88],7.51 ± 0.45
3,GCATATATCAAATATCGTACATTTTTTAAATTAAAA [XGTACX_site3994],7.71 ± 0.39
4,ATAAAATCAAAATATACACACAAGGGGGAAAATCAA [CACACA_site2809],8.37 ± 0.14
5,TTTGTAAGTCTTTGTTGTACTCAATAGAATGAAGAA [XGTACX_site8930],8.1 ± 0.3
6,TTTTCTTTTTTTTATTGTACTTATAAAAATAAATAA [XGTACX_site3498],7.78 ± 0.18
7,TACTTATGTGCATACCTACACACTTACATATATATA [CACACA_site2975],8.59 ± 0.35
8,GATGATGTTTATTTGTGTACATATTAATACTTAATA [XGTACX_site1902],8.09 ± 0.28
9,AATTATTTACCCTATACACACAAAACCCACTAAAAA [CACACA_site4801],8.78 ± 0.45
10,AAGAACAGAACGTACACACACATATATATATATATA [CACACA_site3457],9.33 ± 0.49
11,AAAAAAAGAATGTGAACACACACATTGAATATAATT [CACACA_site8341],7.65 ± 0.81
12,AATCATATGAAAAATACATGCGCATGGATACCTTTA [TGCATGCA_site224],7.79 ± 0.8
13,TATAAATAAATACATACACACACATACATATATATA [CACACA_site9024],8.04 ± 0.64
14,AATAATAATAGTAATATGTACATATATATATATATA [TGCATGCA_negctrl_site542],9.22 ± 0.51
15,TATAAGCAAAAACACACACACATATATATATATATA [CACACA_site3804],9.4 ± 0.35
16,TTTTTATTCGATGATCAAATAGGTATATACAAAAAA [CACACA_negctrl_site1813],8.34 ± 0.64
17,TTATTTAAAAAAAAGTGTACCCATATATTATAAATC [XGTACX_site8374],7.84 ± 0.42
18,TAATATTATAGATAAACACACATACACATGTAAATA [CACACA_site7049],7.71 ± 0.72
19,AAATGAAATTTGTATACACACAAATATATATATATA [CACACA_site836],9.16 ± 0.19
20,GCATCCCTTTTTATGTGTACATACAAAGGCAATTAC [XGTACX_site6977],8.24 ± 0.36
